Reference: PMC6451091
The list shows a part of the results. At the low end of the ranking the order means little.

What follows are sequences tested against PU.1 (IVT) (UniProt P17947) (assay: protein-binding microarray (PBM)). Conditions: 20 mM HEPES pH 7.9, 100 mM NaCl, 1 mM DTT, 0.2 mg/mL BSA, 0.02% Triton X-100, 2% milk, 0.4 mg/mL salmon testes DNA; 1 h; temperature not stated; high values mean tight binding; double strand, one strand shown; sequences stand for … in GCCTAGCAC…GTGCTAGGTCTTGATTCGCTTGACGCTGCTG.

Sequence | binding signal [z-score]
TTCATGAGGAAGTGGCTTAG | 4.78
CAAAGCGGGAAGTGGGTGGG | 2.86
CAAATGAGGAACTGATGTGG | 5.64
GGAAGGAGGAAGTCAGCTTG | 4.76
AAAAAGGGGAAGTACTGCGA | 8.58
AAAAAAAGGAACTGATTCTT | 5.43
ACAAAAAGGAACTGTGACCC | 2.34
AAAAAACGGAACTGCAGAAG | 4.89
AGGGAGAGGAAGTGAGTCGT | 4.06
CTAATGAGGAACTGGCCCGA | 3.99
ACAAAAAGGAACTGTTCCCC | 2.27
AAAATAGGGAAGTGGGAAAC | 7.4
CAAAAGAGGAAGTGGCATAT | 8.01
GATAAGAGCAAGTCCTCTGT | -0.265
GAAAAGAGGAAGTCTGAAAA | 7.48
CGAAAAGGGAAGTGCTAAAC | 6.15
AAATAAAGGAAGTGGATGAT | 4.59

Sequence | binding signal [z-score]
GCTTTAGGGAAGTGGGGCAG | 4.16
ACAAACGGGAAGTACTGTGT | 6.15
GAAAAGAGGAAGTTGCTTAC | 9.03
AGGAAGGGGAAGTGGCTACC | 5.74
CAGGAGAGGAACTGAGAATG | 1.76
GAAAAGAGGAAGTCAAATTT | 8.44
AGATAGCGGAAGTGTTGAGC | 5.84
CAAAACGGGAAGTGGATGCT | 7.04
TGAAAGAGGAACTCAGTCAT | 5.4
GGGATGGGGAAGTGTCATAC | 4.11
TGTTTGAGGAACTGAAATAG | 3.85
ATGGGGAGGAAGTGGTAAGA | 2.95
TAGAATAGGAAGTGAAGTAC | 3.66
AAATAGAGGAAATGCTTCAC | 3.83
CGGAACAGGAAGTGTGGTAC | 4.78
CGAAAGGGGAAGTCCTAAAC | 6.59
